These results are taken from the GPR68 mutational scans of Howard et al. (2025).

First the molecules themselves.
B1: GPR68, Q15743 (parent)
chain: MGNITADNSSMSCTIDHTIHQTLAPVVYVTVLVVGFPANCLSLYFGYLQIKARNELGVYLCNLTVADLFYICSLPFWLQYVLQHDNWSHGDLSCQVCGILLYENIYISVGFLCCISVDRYLAVAHPFRFHQFRTLKAAVGVSVVIWAKELLTSIYFLMHEEVIEDENQHRVCFEHYPIQAWQRAINYYRFLVGFLFPICLLLASYQGILRAVRRSHGTQKSRKDQIQRLVLSTVVIFLACFLPYHVLLLVRSVWEASCDFAKGVFNAYHFSLLLTSFNCVADPVLYCFVSETTHRDLARLRGACLAFLTCSRTGRAREAYPLGAPEASGKSGAQGEEPELLTKLHPAFQTPNSPGSGGFPTGRLA

Scores with a large standard error are left out. The source holds two more conditions with little spread; they are left out. Read del as a deletion of the residues named and ins as an insertion between two positions. For some assays here: The concentration of ogerin is not given here.

The variants in series [1] derive from B1. Put plainly: cAMP reporter score (Enrich2 score, wild type = 0); higher = more signal; HEK293T, FACS bins.
The variants in series [2] derive from B1. Put plainly: surface expression score (Enrich2 score, wild type = 0); higher = more signal; HEK293T, FACS bins.

Turning to A180L, the cAMP reporter score is -1.32 in series [1] (pH 5.5); -1.23 in series [1] (pH 6); -1.34 in series [1] (pH 6, modulator: ogerin); -0.776 in series [1] (pH 6.5, modulator: ogerin). Besides, the surface expression score in series [2] is -1.61.

A180Y: the cAMP reporter score in series [1] (pH 5.5) is 0.947; in series [1] (pH 6), 1.07; in series [1] (pH 6, modulator: ogerin) it was 0.571; in series [1] (pH 6.5, modulator: ogerin), -0.252. For the same variant, the surface expression score in series [2] was -0.057.

For the variant A180C, the cAMP reporter score is -1.22 in series [1] (pH 5.5); -0.687 in series [1] (pH 6); -0.743 in series [1] (pH 6, modulator: ogerin); -2.41 in series [1] (pH 6.5, modulator: ogerin). For the same variant, in series [2], the surface expression score is -0.43.

In the case of A180I, the cAMP reporter score in series [1] (pH 5.5) is 0.434; in series [1] (pH 6), -1.26; in series [1] (pH 6, modulator: ogerin), 0.301; in series [1] (pH 6.5, modulator: ogerin), -0.446. Also, the surface expression score in series [2] is -0.545.

Consider A180G, for which the cAMP reporter score was 1.85 in series [1] (pH 5.5); -0.359 in series [1] (pH 6); 1.36 in series [1] (pH 6, modulator: ogerin); 1.28 in series [1] (pH 6.5, modulator: ogerin). In addition, the surface expression score in series [2] was 1.11.

Take A180N: the cAMP reporter score in series [1] (pH 5.5) was 0.226; in series [1] (pH 6), 1.8; in series [1] (pH 6, modulator: ogerin), 1.02; in series [1] (pH 6.5, modulator: ogerin), 2.01. The surface expression score in series [2] was 0.888.

As to A180M, the cAMP reporter score in series [1] (pH 5.5) came out at 0.6; in series [1] (pH 6) it was 1.15; in series [1] (pH 6, modulator: ogerin) it was 1.42; in series [1] (pH 6.5, modulator: ogerin) it was 0.934. The surface expression score in series [2] is 1.86.

A180W: the cAMP reporter score was 0.661 in series [1] (pH 5.5); -1.03 in series [1] (pH 6); 0.362 in series [1] (pH 6, modulator: ogerin); -0.254 in series [1] (pH 6.5, modulator: ogerin). Besides, the surface expression score in series [2] is -1.59.

Turning to A180E, the cAMP reporter score in series [1] (pH 5.5) is -0.389; in series [1] (pH 6), 0.47; in series [1] (pH 6, modulator: ogerin), -0.322; in series [1] (pH 6.5, modulator: ogerin), 0.18. Further, in series [2], the surface expression score is -0.597.

As to A180S, the cAMP reporter score is 1.15 in series [1] (pH 5.5); 0.317 in series [1] (pH 6); 1.39 in series [1] (pH 6, modulator: ogerin); 1.48 in series [1] (pH 6.5, modulator: ogerin). Also, in series [2], the surface expression score was 1.96.

Consider A180R, for which the cAMP reporter score in series [1] (pH 5.5) is -0.702; in series [1] (pH 6), -0.561; in series [1] (pH 6, modulator: ogerin), 0.91.

A180H: the cAMP reporter score in series [1] (pH 5.5) was -0.915; in series [1] (pH 6, modulator: ogerin), 0.522; in series [1] (pH 6.5, modulator: ogerin) it was 0.624. The surface expression score in series [2] turned out to be 0.161.

As to A180Q, the cAMP reporter score is 0.76 in series [1] (pH 5.5); 1.12 in series [1] (pH 6); 0.997 in series [1] (pH 6, modulator: ogerin); 2.08 in series [1] (pH 6.5, modulator: ogerin). The surface expression score in series [2] worked out at 0.543.

As to A180T, the cAMP reporter score amounted to 0.818 in series [1] (pH 5.5); 1.06 in series [1] (pH 6); 1.44 in series [1] (pH 6, modulator: ogerin); 1.83 in series [1] (pH 6.5, modulator: ogerin). The surface expression score in series [2] was determined as 1.15.

Take W181T: the cAMP reporter score in series [1] (pH 5.5) is -0.809; in series [1] (pH 6) it was 0.396; in series [1] (pH 6, modulator: ogerin) it was -1.99; in series [1] (pH 6.5, modulator: ogerin), -0.954. Further, the surface expression score in series [2] is -0.069.

Regarding W181L, the cAMP reporter score is -1.05 in series [1] (pH 5.5); -0.366 in series [1] (pH 6); -0.727 in series [1] (pH 6, modulator: ogerin); -1.02 in series [1] (pH 6.5, modulator: ogerin). Also, the surface expression score in series [2] is -0.773.

Turning to W181K, the cAMP reporter score in series [1] (pH 5.5) was found to be 0.186. For the same variant, the surface expression score in series [2] amounted to 0.281.

Turning to W181A, the cAMP reporter score in series [1] (pH 5.5) was 1.03; in series [1] (pH 6) it was -0.241; in series [1] (pH 6, modulator: ogerin), -0.253; in series [1] (pH 6.5, modulator: ogerin), 0.128. The surface expression score in series [2] was found to be 1.3.

On to W181N, for which the cAMP reporter score was 0.301 in series [1] (pH 5.5); -0.558 in series [1] (pH 6); -0.932 in series [1] (pH 6, modulator: ogerin); -0.937 in series [1] (pH 6.5, modulator: ogerin). For the same variant, the surface expression score in series [2] was -0.496.

Regarding W181V, the cAMP reporter score was -1.33 in series [1] (pH 5.5); -1.02 in series [1] (pH 6); -1.9 in series [1] (pH 6, modulator: ogerin); -0.871 in series [1] (pH 6.5, modulator: ogerin). The surface expression score in series [2] is -1.54.

In the case of W181I, the cAMP reporter score in series [1] (pH 5.5) was -0.884; in series [1] (pH 6), -1.2; in series [1] (pH 6, modulator: ogerin) it was -2.11; in series [1] (pH 6.5, modulator: ogerin) it was -1.29. Moreover, the surface expression score in series [2] was -0.614.

As for W181R, the cAMP reporter score in series [1] (pH 5.5) was -0.661; in series [1] (pH 6), -1.96; in series [1] (pH 6, modulator: ogerin), 0.049. Moreover, the surface expression score in series [2] was determined as 1.47.

Take W181F: the cAMP reporter score in series [1] (pH 5.5) was 0.3; in series [1] (pH 6), -1.39; in series [1] (pH 6, modulator: ogerin) it was -0.156; in series [1] (pH 6.5, modulator: ogerin), -1.31. Besides, in series [2], the surface expression score amounted to 0.565.

As to W181S, the cAMP reporter score is -0.361 in series [1] (pH 5.5); -0.664 in series [1] (pH 6); -0.424 in series [1] (pH 6, modulator: ogerin); -0.569 in series [1] (pH 6.5, modulator: ogerin). In series [2], the surface expression score is 0.223.

Consider W181H, for which the cAMP reporter score was -0.402 in series [1] (pH 5.5); -0.34 in series [1] (pH 6); -0.567 in series [1] (pH 6, modulator: ogerin); -0.394 in series [1] (pH 6.5, modulator: ogerin).

Take W181M: the cAMP reporter score was -0.378 in series [1] (pH 5.5); -0.716 in series [1] (pH 6, modulator: ogerin); -0.446 in series [1] (pH 6.5, modulator: ogerin).

On to W181P, for which the cAMP reporter score is 0.226 in series [1] (pH 5.5); -0.012 in series [1] (pH 6); -0.172 in series [1] (pH 6, modulator: ogerin); -1.03 in series [1] (pH 6.5, modulator: ogerin). Besides, the surface expression score in series [2] is 0.249.

Consider W181D, for which the cAMP reporter score in series [1] (pH 5.5) is 1.96; in series [1] (pH 6, modulator: ogerin) it was -3.11; in series [1] (pH 6.5, modulator: ogerin), -1.49. Further, in series [2], the surface expression score is -2.

In the case of W181C, the cAMP reporter score is -0.549 in series [1] (pH 5.5); -0.087 in series [1] (pH 6); -0.609 in series [1] (pH 6, modulator: ogerin); -0.567 in series [1] (pH 6.5, modulator: ogerin). In addition, the surface expression score in series [2] is -0.623.

For the variant W181Q, the cAMP reporter score in series [1] (pH 5.5) is 0.814; in series [1] (pH 6), -0.879; in series [1] (pH 6, modulator: ogerin) it was -1; in series [1] (pH 6.5, modulator: ogerin) it was -1.17. The surface expression score in series [2] amounted to 0.251.

On to W181E, for which the cAMP reporter score was 2.72 in series [1] (pH 5.5); 0.857 in series [1] (pH 6); -0.093 in series [1] (pH 6, modulator: ogerin); -0.818 in series [1] (pH 6.5, modulator: ogerin). Besides, the surface expression score in series [2] is 1.02.

W181G: the cAMP reporter score in series [1] (pH 5.5) was -0.835; in series [1] (pH 6, modulator: ogerin), -0.664; in series [1] (pH 6.5, modulator: ogerin) it was -1.46. In addition, the surface expression score in series [2] turned out to be 0.623.

For the variant A180del, the cAMP reporter score was -2.02 in series [1] (pH 5.5); -0.41 in series [1] (pH 6, modulator: ogerin); -0.441 in series [1] (pH 6.5, modulator: ogerin). Further, the surface expression score in series [2] was -0.375.
